# Source: PubChem BioAssay AID759 (NMMLSC, 2007)
# In all, about 190,000 compounds went through this assay and about 270 (0.14%) were called active. This list was built around the results that the source calls inconclusive (neither active nor inactive); the mix of calls is not that of the screen.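 How the source made its calls: active means GTP binding activity at least 20% away from the 100% baseline, either lowered as inhibitor or raised as activator; inconclusive means flagged as likely green fluorescent, judged across all proteins in the well; inactive means the rest.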
# Target: GTPase HRas (Homo sapiens) (UniProt P01112)
# Chain of UniProt P01112 (P01112 whole entry, looked up): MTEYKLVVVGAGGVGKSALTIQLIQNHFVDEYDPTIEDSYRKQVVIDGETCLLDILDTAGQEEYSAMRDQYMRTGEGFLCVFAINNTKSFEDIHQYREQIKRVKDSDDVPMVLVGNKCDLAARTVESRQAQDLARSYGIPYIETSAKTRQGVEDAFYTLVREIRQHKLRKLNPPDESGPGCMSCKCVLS
# Assay: HRas wt fluorescent GTP binding changes, either direction – biochemical, wildtype, bead-based flow cytometry, multiplex, primary screen (AID 759);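 further: 0% = unlabeled GTP competition control and 100% = no-compound control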
# Settings: GST-Ras wt beads, Bodipy-FL-GTP binding, at 10 µM, actives lie on both sides
row,SMILES,GTP binding activity
1,CCOC(=O)c1cnc(SCCN2CCOCC2)nc1N,inactive: 97%
2,O=C(CCc1nc2ccccc2c(=O)[nH]1)OCC(=O)N1CCc2ccccc21,inactive: 98%
3,Cc1c(C(=O)N/N=C/c2ccc(-c3ccccc3[N+](=O)[O-])o2)sc(N)c1C#N,inconclusive: 62%
4,CN(C(=O)COC(=O)c1ccccc1SCC(=O)NC1CCCCCCC1)C1CCS(=O)(=O)C1 (centres undefined),inconclusive: 97%
5,O=C(N/C(=C/c1cccnc1)C(=O)N1CCOCC1)c1ccccc1,inconclusive: 100%
6,CCn1nc(C)c(/C=N/NC(=O)Cc2ccc(Cl)cc2)c1C,inconclusive: 102%
7,COc1ccc(OC)c(CNC(=O)c2coc(=O)c3ccccc23)c1,inactive: 96%
8,COc1ccc(C(=O)Nn2c(CCC(=O)O)ccc2-c2ccc(C)cc2)cc1OC,inactive: 95%
9,C/C(CC(=O)Nc1cccc(Cl)c1Cl)=N\NC(=O)c1ccccc1N,inconclusive: 91%
10,CN(C)S(=O)(=O)c1ccc(C(=O)NNc2nc(-c3ccccc3)c3cc(Br)ccc3n2)cc1,inactive: 83%
11,O=C(Cn1c(NCCO)nc2ccccc21)NCCc1ccccc1,inconclusive: 101%
12,O=C(CCCCCn1c(=S)[nH]c2ccc(N3CCOCC3)cc2c1=O)NCc1cccc(Cl)c1,inconclusive: 88%
13,COc1cc(Cl)c(C)cc1NC(=O)c1ccc2c(SCC(=O)O)c3c(nc2c1)CCCC3,inconclusive: 88%
14,CCN(CC)S(=O)(=O)c1ccc2c(c1)nc(CCC(=O)Nc1cccc(C(F)(F)F)c1)n2CC,inconclusive: 105%
15,Cc1ccc(CN(CC(=O)NC(C)(C)C)C(=O)CNC(=O)c2cccs2)cc1,inconclusive: 94%
16,N#Cc1cnc(SCC(=O)NNC(=O)COc2cccc3ccccc23)nc1N,inconclusive: 99%
17,CCOc1ccc(NC(=O)COC(=O)c2cccnc2)cc1,inconclusive: 102%
18,C=CCNC(=S)N/N=C/c1ccc(C)cc1C,inconclusive: 94%
19,O=C(Nc1cccc(Cl)c1)c1cc([N+](=O)[O-])ccc1N1CCN(CCO)CC1,inactive: 97%
20,COc1ccc(CCNC(=O)c2ccc(CNc3nc(=S)[nH]c4ccccc34)cc2)cc1OC,inactive: 98%
21,O=C(Cn1c(=O)n(-c2ccccc2)c(=O)c2sccc21)NCc1ccccc1,inactive: 98%
22,NS(=O)(=O)c1ccc(N2N=C(c3ccccc3)CC2c2cccc(F)c2)cc1 (centres undefined),inactive: 102%
23,CC1(C)CC(=O)c2cnc(NCc3ccco3)nc2C1,inconclusive: 102%
24,COC(=O)c1ccc(CSc2nnc(Nc3ccc(C)cc3)s2)o1,inconclusive: 90%
